Molecular target: rabbit VEGF (rabbit) (UniProt G1T1L9)
Experiment: SPR, summary table, column Rabbit VEGF, Kd [M]

- Kd: 1.07 nM
B1: IGT-427 (Fc fusion)
heavy: EVQLVQSGAEVKKPGASVKVSCKASGYSFTSYWMNWVRQAPGQGLEWMGMIHPSDSETRLNQKFMDRVTMTRDTSTSTVYMELSSLRSEDTAVYYCARGLYGNSWGQGTLVTVSSASTKGPSVFPLAPSSKSTSGGTAALGCLVKDYFPEPVTVSWNSGALTSGVHTFPAVLQSSGLYSLSSVVTVPSSSLGTQTYICNVNHKPSNTKVDKKV[sequence of human IgG1 Fc with L234A L235A H310A (EU numbers) not given]GGGGSGGGGSGGGGSGGGGSSDTGRPFVEMYSEIPEIIHMTEGRELVIPCRVTSPNITVTLKKFPLDTLIPDGKRIIWDSRKGFIISNATYKEIGLLTCEATVNGHLYKTNYLTHRQTNTIIDVVLSPSHGIELSVGEKLVLNCTARTELNVGIDFNWEYPSSKHQHKKLVNRDLKTQSGSEMKKFLSTLTIDGVTRSDQGLYTCAASSGLMTKKNSTFVRVHEK
light: DIQMTQSPSSLSASVGDRVTITCRASQDIGISLNWYQQEPGKAIKRLIYATSSLDSGVPKRFSGSRSGTEYTLTISSLESEDFADYYCLQYASSPYTFGGGTKLEIKRTVAAPSVFIFPPSDEQLKSGTASVVCLLNNFYPREAKVQWKVDNALQSGNSQESVTEQDSKDSTYSLSSTLTLSKADYEKHKVYACEVTHQGLSSPVTKSFNRGEC

Source: patent US20230287109A1
